From PubChem BioAssay AID686978 (National Center for Advancing Translational Sciences (NCATS), 2013)
“And” between values parts separate entries of the source, which are not always exact repeats. Equal entries are not always repeated. Hit rate of the full screen: of about 420,000 compounds, about 64,000 (15%) were called active. This list was built around the results that the source calls inconclusive (neither active nor inactive); the mix of calls is not that of the screen. Calls follow the shape of the dose curve; as a rule, active = well fitted inhibition curve with a large enough effect; inconclusive = small, poorly fitted or top-dose-only effect; inactive = flat fitted curve, though single readings scatter. Potencies of inconclusive entries are doubtful fits and often do not repeat.

assay: qHTS for Inhibitors of human tyrosyl-DNA phosphodiesterase 1 (TDP1): qHTS in cells in absence of CPT; conditions: DT40 Tdp1-/- hTDP1 cells, no CPT, ATP luminescence, 48 h; activity change, negative = growth inhibition: at 46.2 µM (top of the series) unless noted; also: nearly all actives have a fitted effect of over 55% in size
Summary of the method: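 DT40 Tdp1-/-;hTDP1 cells, no CPT (DMSO vehicle only), 400 cells/well; compounds pin-transferred; ≥48 hr, 37 °C; CellTiter-Glo 30 min RT dark, luminescence read.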
% is scaled to controls: 0 for no effect and ±100 for the full control effect; potency is read from the fitted curve at half-maximal effect; tags tell the direction and shape of the fitted curve.

SMILES | Potency | activity change, negative = growth inhibition
COc1ccc(/C=N/Nc2nnc(C)n2N)cc1OC | inactive | –
Cc1ccccc1-n1ncc2c1CC(C)(C)CC2NC(=O)c1ccncc1 (stereo unspecified) | inactive | –
CCOc1ccc(OCC)c(NC(=O)CSc2nc3c(c(=O)n(C)c(=O)n3C)n2C(C)C)c1 | active: 20.6 µM | –
CCOC(=O)N1CCC(N2C(=O)c3ccccc3C2Nc2c(C)cccc2C)CC1 (stereo unspecified) | inconclusive: 18.4 µM [inhibitor, single point] | –
O=C(Nc1ccc(Cl)cc1)c1ccc(Br)cc1F | inconclusive: 13 µM [inhibitor, single point] | –
CCCOc1ccc(CNC(=O)Cn2c(=O)oc3ccccc32)cc1 | inconclusive: 23.1 µM [inhibitor, single point] and inconclusive: 20.6 µM [inhibitor, single point] | –
Cc1ccccc1NC1=C(Cl)C(=O)OC1OC(=O)c1ccccc1C (stereo unspecified) | inconclusive: 29.1 µM [inhibitor, single point] | –
N/C(COc1ccc(Cl)cc1Cl)=N\O | inactive | –
NC(=O)NC(=O)COC(=O)c1ccc2noc(-c3ccccc3)c2c1 | inactive | –
COc1cccc(CNC(=O)c2cccc(NC(=O)c3nsc4ccccc34)c2)c1 | active: 20.6 µM | –
CCCNC(=O)C1(C)CCCN(C(=O)c2cccc(OC(F)(F)F)c2)C1 (stereo unspecified) | inconclusive: 18.4 µM [inhibitor, partial curve] | –
Nc1cc(OC(=O)c2ccco2)nn1S(=O)(=O)c1ccc(F)cc1 | inactive | –
O=C1CC(O)(C(F)F)Oc2ccc3ccccc3c21 (stereo unspecified) | inconclusive: 16.4 µM [inhibitor, single point] | –
O=C(c1ccccc1F)N(Cc1cccnc1)Cc1cc2cc3c(cc2[nH]c1=O)OCCO3 | inconclusive: 14.6 µM [inhibitor, single point] | –
COc1ccc(NS(=O)(=O)c2ccc3c(c2)n(C)c(=O)c(=O)n3C)cc1Cl | inconclusive: 29.1 µM [inhibitor, single point] | –
COC(=O)c1ccc(CNC(=O)c2ccc(OCC(=O)N3CCOCC3)c(OC)c2)cc1 | inactive | –
COc1cccc(CNC(=O)CC(c2ccc(C)cc2)N2Cc3ccccc3C2=O)c1 (stereo unspecified) | inconclusive: 29.1 µM [inhibitor, single point] | –
CCCCC(C(=O)NC1CCCC1)N(C(=O)c1snc(C(N)=O)c1N)c1ccc(OCC)cc1 (stereo unspecified) | inconclusive: 29.1 µM [inhibitor, single point] | –
COc1ccc(-n2c(SCC(=O)NCC3CCCO3)nc3ccccc3c2=O)cc1Cl (stereo unspecified) | active: 20.6 µM | –
CCCOc1ccc(C2C(=O)N(C3CCCCC3)CC(=O)N2CCC2=CCCCC2)cc1OC (stereo unspecified) | inactive | –
Cc1ccc(CNC(=O)c2cnn(-c3ccc(F)cc3F)c2C2CCN(C(=O)OC(C)(C)C)CC2)cc1 | inconclusive: 18.4 µM [inhibitor, single point] | –
O=C(CSC1=NS(=O)(=O)c2ccccc2N1)Nc1nccs1 | inactive | –
COc1ccc(OCc2nnc3n2N=C(c2ccc(OC)cc2)CS3)cc1 | inconclusive: 16.4 µM [inhibitor, single point] | –

SMILES | Potency | activity change, negative = growth inhibition
Cc1cc(C)nc(-n2nc(C)c(Br)c2Nc2ccc(Br)cc2)n1 | inconclusive: 20.6 µM [inhibitor, single point] | –
COc1cccc(CNC(=O)CCS(=O)(=O)c2cc3c4c(c2)CCN4C(=O)CC3)c1 | inactive | –
COc1cc(/C=C(\C#N)C(=O)c2ccc(O)c(O)c2)cc(I)c1O | inactive | –
COc1cc(-c2nc3cnccn3c2Nc2ccc(C(C)C)cc2)ccc1O | active: 20.6 µM and active: 8.2 µM | –
CNC(=O)N(C1=NCC(C)S1)c1ccc(F)cc1F (stereo unspecified) | inactive | –
CSc1ccc(NC(=O)NCCN2CCc3ccccc3C2)cc1 | inconclusive: 10.3 µM [inhibitor, partial curve] | –
O=C(COc1ccc(Cl)cc1Cl)N/N=C/c1ccc[nH]1 | inconclusive: 14.6 µM [inhibitor, partial curve] | –
CCOc1ccc(-c2c(=O)n(OCc3ccccc3Br)c3ccccc3[n+]2[O-])c(OCC)c1 | active: 23.1 µM | –
O=C(CN1CCN(c2ncccn2)CC1)Nc1ccccc1C(F)(F)F | inconclusive: 20.6 µM [inhibitor, single point] | –
S=C(Nc1ccc(Cl)cc1)NC1CC2CCCC(C1)N2C1CCCC1 (stereo unspecified) | inconclusive: 18.4 µM [inhibitor, single point] | –
COc1ccc([C@H]2[C@H](C(=O)OC(C)(C)C)N3N=Cc4ccccc4C3C23C(=O)c2ccccc2C3=O)c(OC)c1 (stereo partly specified) | inconclusive: 29.1 µM [inhibitor, single point] | –
COc1ccc(O)c(CN2CC3CCC(CC3)C2)c1 | inconclusive: 20.6 µM [inhibitor, single point] | –
CN(C)CCNC(=O)c1onc(CSc2ccc(F)c(F)c2)c1C(=O)NCCN(C)C | active: 16.4 µM | –
CCc1ccc(Cn2c(CNS(=O)(=O)c3ccc(Cl)s3)nc3cccnc32)cc1 | active: 16.4 µM | –
CCc1ccc(C2=NN(CCC(=O)NCc3cccs3)C(=O)CC2)cc1 | inconclusive: 25.9 µM [inhibitor, single point] | –
CC(=O)Nc1ccccc1C(=O)C(=O)Nc1ccc(F)c(Cl)c1 | inconclusive: 0.0052 µM [inhibitor, full curve, poor fit] | –
OCCC1CN(Cc2cnc(-c3ccccc3)s2)CCN1C1CCCCC1 (stereo unspecified) | inconclusive: 14.6 µM [inhibitor, partial curve, poor fit] | –
COc1ccccc1-c1ccnc2c(-c3ccc(Br)cc3)c(C)nn12 | inactive | –
Cc1ccccc1NC(=O)CSc1nnc(-c2cccc(Cl)c2)o1 | inactive | –
COc1ccc(CNC(=O)C(C)n2nc(C)c3sc4ccccc4c3c2=O)cc1OC (stereo unspecified) | active: 6.51 µM | –
CCOC(=O)c1cc2c(=O)n3ccccc3nc2n(CC2CCCO2)c1=NC(=O)c1ccccc1F (stereo unspecified) | inconclusive: 20.6 µM [inhibitor, partial curve] | –
O=C(c1cnc2nc3ccccc3n2c1)c1cc(F)ccc1O | – | inconclusive: -32.7% [inhibitor]
Cn1cccc1C(=O)N1CCN(c2cccc(C(F)(F)F)c2)CC1 | inconclusive: 18.4 µM [inhibitor, partial curve, poor fit] | –
